Our source for the ALDHbr values is the supplement of paper PMC11880418.

Among the test systems are MKN45; PANC1; SUM159; T84.
What all share (assay): ALDHbr (CSC) cell proportion score relative to DMSO vehicle (ratio to DMSO); breast (SUM159) / gastric (MKN45) / pancreatic (PANC1) / colon cancer lines; ALDHbr cells have high ALDH activity and are rich in cancer stem cells (CSC); higher = more CSC (ALDHbr) cells remaining
What all share (conditions): 10 µM; 72 h

Where a name gives a salt, the structure may show the parent alone. The list shows a part of the results. The data scatter; read single values as rough.
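Also: High-content imaging of ALDEFLUOR-stained cells with Hoechst-labelled nuclei in 384-well plates, triplicate wells, scored as Z-score against 0.1% DMSO vehicle, negative meaning fewer ALDHbr cells.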

Take `CN1[C@@H]2CC[C@H]1C[C@@H](OC(=O)c1c[nH]c3ccccc13)C2` [Tropisetron hydrochloride]: the ALDHbr in the test on MKN45 turned out to be 1.23; with PANC1 it was 0.926; in the test with SUM159 it was 1.14; in the test with T84 it was 0.94.
The corresponding values for `COC(=O)[C@H]1[C@H]2C[C@@H]3c4[nH]c5cc(OC)ccc5c4CCN3C[C@H]2C[C@@H](OC(=O)c2cc(OC)c(OC)c(OC)c2)[C@@H]1OC` [Reserpine] are 1.27, 0.896, 0.683 and 0.89.
On to `CCOC(=O)C1=C(COCCN)NC(C)=C(C(=O)OC)C1c1ccccc1Cl` (centres undefined) [Amlodipine], for which the ALDHbr with MKN45 amounted to 1.04; with PANC1 it was 0.833; in the test on SUM159, 0.427; in the test with T84, 0.391.
For `CCN(CC)C(=O)c1ccc(O)c(OC)c1` [Ethamivan], the ALDHbr with MKN45 is 1.06; with PANC1, 0.922; in the test with SUM159, 1.06; with T84, 0.987.
For `C[C@H]1COc2c(N3CCN(C)CC3)c(F)cc3c(=O)c(C(=O)O)cn1c23` [Levofloxacin], the ALDHbr with MKN45 turned out to be 0.956; in the test with PANC1 it was 0.941; in the test on SUM159, 0.984; in the test on T84 it was 0.866.
The corresponding values for `c1ccc2c(CC3=NCCN3)cccc2c1` [Naphazoline hydrochloride] are 0.984, 0.908, 0.974 and 0.996.
The corresponding values for `N=C(N)c1ccc(OCCCCCOc2ccc(C(=N)N)cc2)cc1` [Pentamidine isethionate] are 0.195, 0.336, 0.302 and 0.645.
The corresponding values for `Clc1ccc(C(Cn2ccnc2)OCc2c(Cl)cccc2Cl)c(Cl)c1` (centres undefined) [Isoconazole] are 0.978, 0.859, 0.988 and 0.991.
With `Cc1ccc(S(=O)(=O)NC(=O)NN2CCCCCC2)cc1` [Tolazamide], the ALDHbr in the test on MKN45 is 0.975; in the test on PANC1, 0.958; in the test on SUM159 it was 1; in the test with T84 it was 0.916.
Taken in the same sequence, the figures for `C/C(=C(\CCOP(=O)(O)O)SC(=O)c1ccccc1)N(C=O)Cc1cnc(C)nc1N` [Benfotiamine] were 1.03, 0.946, 0.961 and 0.887.
The corresponding values for `Cc1cc(CC(=O)O)n(C)c1C(=O)c1ccc(Cl)cc1` [Zomepirac sodium salt] are 1.01, 0.948, 1.06 and 0.936.
The corresponding values for `O=C(O)CCC(=O)Nc1ccc(S(=O)(=O)Nc2nccs2)cc1` [Succinylsulfathiazole] are 1.25, 0.928, 1.09 and 0.889.
As to `Nc1ccn([C@@H]2CS[C@H](CO)O2)c(=O)n1` [Lamivudine], the ALDHbr in the test on MKN45 was 1.07; in the test with PANC1 it was 0.859; in the test with SUM159, 1.12; with T84 it was 1.05.
Taken in the same sequence, the figures for `CN1CCN2c3ncccc3Cc3ccccc3C2C1` (centres undefined) [Mirtazapine] were 1.12, 0.981, 1.03 and 0.999.
The corresponding values for `COc1ccc(-c2cc(=S)ss2)cc1` [Anethole-trithione] are 0.53, 0.701, 1.63 and 0.648.
In the case of `Nc1nc(=O)c2c([nH]1)NC[C@@H](CNc1ccc(C(=O)N[C@@H](CCC(=O)O)C(=O)O)cc1)N2C=O` [Folinic acid calcium salt], the ALDHbr in the test on MKN45 was determined as 1.05; in the test with PANC1, 0.914; with SUM159 it was 0.967; with T84, 0.94.
Consider `Oc1ccc(OCc2ccccc2)cc1` [Monobenzone], for which the ALDHbr with MKN45 is 0.111; in the test on PANC1 it was 0.959; in the test with SUM159 it was 2.52; with T84 it was 0.975.
Taken in the same sequence, the figures for `C[C@]12C=CC(=O)C=C1CC[C@@H]1[C@@H]2C(=O)C[C@@]2(C)[C@H]1CC[C@]2(O)C(=O)CO` [Prednisone] were 1.04, 0.809, 0.924 and 1.07.
The corresponding values for `Cc1nccn1CC1CCc2c(c3ccccc3n2C)C1=O` (centres undefined) [Ondansetron Hydrochloride] are 0.879, 1.01, 0.847 and 0.817.
Taken in the same sequence, the figures for `CNC(=C[N+](=O)[O-])NCCSCc1csc(CN(C)C)n1` [Nizatidine] were 1, 0.847, 1.19 and 0.913.
As to `Cc1cnc(NC(=O)C2=C(O)c3ccccc3S(=O)(=O)N2C)s1` [Meloxicam], the ALDHbr came to 0.964 in the test with MKN45, 0.941 with PANC1, 0.906 in the test with SUM159 and 0.965 with T84.
Regarding `NS(=O)(=O)c1cc2c(cc1Cl)NC(C(Cl)Cl)NS2(=O)=O` (centres undefined) [Trichlormethiazide], the ALDHbr worked out at 0.994 with MKN45, 0.828 with PANC1, 0.805 in the test with SUM159 and 1.05 in the test on T84.
The corresponding values for `CCC(=O)[C@@]1(C)[C@H](C)C[C@H]2[C@@H]3CCC4=CC(=O)C=C[C@]4(C)[C@H]3[C@@H](O)C[C@@]21C` [Rimexolone] are 1.18, 0.752, 1.56 and 0.91.
Taken in the same sequence, the figures for `O=C(O)c1cn(-c2ccc(F)cc2)c2cc(N3CCNCC3)c(F)cc2c1=O` [Sarafloxacin] were 0.936, 0.881, 0.933 and 1.01.
The corresponding values for `CN1CCc2c(c3ccccc3n2Cc2ccccc2)C1` [Mebhydroline 1,5-naphtalenedisulfonate] are 1.24, 0.928, 0.702 and 0.676.
Regarding `CC(=O)O[C@]1(C(C)=O)CC[C@H]2[C@@H]3C=C(C)C4=CC(=O)CC[C@]4(C)[C@H]3CC[C@@]21C` [Megestrol acetate], the ALDHbr is 0.868 with MKN45, 0.739 with PANC1, 0.831 in the test with SUM159 and 1.09 in the test with T84.
